{"source": "the supplement of paper PMC4604168 (melanoma cell lines)", "note": "The other results are listed elsewhere or left out. Most values come without repeats; read them as rough.", "data": [{"system": "WM451Lu", "assay": "cell count relative to DMSO control; melanoma cells; higher = more viable cells", "details": "library dose: low library concentration; 72 h", "units": {"cell count": "%"}, "values": [{"compound": "CCCS(=O)(=O)Nc1ccc(F)c(C(=O)c2c[nH]c3ncc(Cl)cc23)c1F", "note": "+ N#Cc1c(O)c2c(-c3ccc(-c4ccccc4O)cc3)csc2[nH]c1=O [A769662] (first compound 0.08 µM, partner dose 2 µM);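 note: cell number obtained by counting DAPI-stained nuclei in high-throughput microscope images with image analysis software, screen run in 1,536-well plates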", "cell count": 94.3}, {"compound": "CN(c1ncccc1CNc1nc(Nc2ccc3c(c2)CC(=O)N3)ncc1C(F)(F)F)S(C)(=O)=O", "note": "+ CNC(=O)c1cc(Oc2ccc(NC(=O)Nc3ccc(Cl)c(C(F)(F)F)c3)cc2)ccn1 [sorafenib] (first compound 0.08 µM, partner dose 0.4 µM)", "cell count": 64.1}, {"compound": "CS(=O)(=O)c1ccc(C(=O)Nc2ccc(Cl)c(-c3ccccn3)c2)c(Cl)c1", "note": "[vismodegib] + COc1ccc2c(c1)CCC1C2CCC2(C)C(NCCCCCCN3C(=O)C=CC3=O)CCC12 [U73122] (first compound 1 µM, partner dose 0.4 µM)", "cell count": 93.1}, {"compound": "CS(=O)(=O)c1ccc(C(=O)Nc2ccc(Cl)c(-c3ccccn3)c2)c(Cl)c1", "note": "[vismodegib] + NC(=O)Nc1cc(-c2cccc(F)c2)sc1C(=O)N[C@H]1CCCNC1 [AZD7762] (first compound 1 µM, partner dose 0.02 µM)", "cell count": 89.9}, {"compound": "NC1(c2ccc(-c3nc4ccn5c(=O)[nH]nc5c4cc3-c3ccccc3)cc2)CCC1", "note": "+ COc1cc2c(Oc3ccc4[nH]c(C)cc4c3F)ncnc2cc1OCCCN1CCCC1 [cediranib] (first compound 0.4 µM, partner dose 0.4 µM)", "cell count": 96.2}, {"compound": "C=C(c1ccc(C(=O)O)cc1)c1cc2c(cc1C)C(C)(C)CCC2(C)C", "note": "[Bexarotene] + COc1ccc(COc2ccc(Cc3cnc(N)nc3N)cc2OC)cc1 [GW2580] (first compound 2 µM, partner dose 1 µM)", "cell count": 125}, {"compound": "CS(=O)(=O)c1ccc(C(=O)Nc2ccc(Cl)c(-c3ccccn3)c2)c(Cl)c1", "note": "[vismodegib] + CC(=O)c1c(C)c2cnc(Nc3ccc(N4CCNCC4)cn3)nc2n(C2CCCC2)c1=O [palbociclib] (first compound 1 µM, partner dose 0.04 µM)", "cell count": 73.3}, {"compound": "CN(c1ncccc1CNc1nc(Nc2ccc3c(c2)CC(=O)N3)ncc1C(F)(F)F)S(C)(=O)=O", "note": "+ Nc1nc(F)nc2c1ncn2[C@@H]1O[C@H](CO)[C@@H](O)[C@@H]1O [fludarabine] (first compound 0.08 µM, partner dose 0.2 µM)", "cell count": 44.7}, {"compound": "CS(=O)(=O)c1ccc(C(=O)Nc2ccc(Cl)c(-c3ccccn3)c2)c(Cl)c1", "note": "[vismodegib] + COc1ccc(COc2ccc(Cc3cnc(N)nc3N)cc2OC)cc1 [GW2580] (first compound 1 µM, partner dose 1 µM)", "cell count": 95}, {"compound": "CN(c1ncccc1CNc1nc(Nc2ccc3c(c2)CC(=O)N3)ncc1C(F)(F)F)S(C)(=O)=O", "note": "+ O=S(=O)(c1ccccc1)N(CC(F)(F)F)c1ccc(C(O)(C(F)(F)F)C(F)(F)F)cc1 [T0901317] (first compound 0.08 µM, partner dose 1.4 µM)", "cell count": 60.9}, {"compound": "CCCS(=O)(=O)Nc1ccc(F)c(C(=O)c2c[nH]c3ncc(Cl)cc23)c1F", "note": "+ Cn1cc(/C=C2\\C(=O)Nc3cccnc32)c2ccccc21 [GW441756] (first compound 0.08 µM, partner dose 0.4 µM)", "cell count": 98.7}, {"compound": "C=C(c1ccc(C(=O)O)cc1)c1cc2c(cc1C)C(C)(C)CCC2(C)C", "note": "[Bexarotene] + Oc1nc(-c2ccc(C(F)(F)F)cc2)nc2c1CSCC2 [XAV939] (first compound 2 µM, partner dose 2 µM)", "cell count": 98.1}, {"compound": "CN(c1ncccc1CNc1nc(Nc2ccc3c(c2)CC(=O)N3)ncc1C(F)(F)F)S(C)(=O)=O", "note": "+ COc1cc2c(Oc3ccc4[nH]c(C)cc4c3F)ncnc2cc1OCCCN1CCCC1 [cediranib] (first compound 0.08 µM, partner dose 0.4 µM)", "cell count": 71.4}, {"compound": "CCCS(=O)(=O)Nc1ccc(F)c(C(=O)c2c[nH]c3ncc(Cl)cc23)c1F", "note": "+ COc1ccc(COc2ccc(Cc3cnc(N)nc3N)cc2OC)cc1 [GW2580] (first compound 0.08 µM, partner dose 1 µM)", "cell count": 89.7}, {"compound": "NC1(c2ccc(-c3nc4ccn5c(=O)[nH]nc5c4cc3-c3ccccc3)cc2)CCC1", "note": "+ O=C(O)c1ccc2c(c1)nc(Nc1cccc(Cl)c1)c1ccncc12 [CX4945] (first compound 0.4 µM, partner dose 0.4 µM)", "cell count": 103}, {"compound": "CN(c1ncccc1CNc1nc(Nc2ccc3c(c2)CC(=O)N3)ncc1C(F)(F)F)S(C)(=O)=O", "note": "+ O=C(Nc1cccc(Cl)c1)Nc1ncc(CCNc2ncnc3ccsc23)s1 [SNS314] (first compound 0.08 µM, partner dose 0.0008 µM)", "cell count": 78}, {"compound": "CN(c1ncccc1CNc1nc(Nc2ccc3c(c2)CC(=O)N3)ncc1C(F)(F)F)S(C)(=O)=O", "note": "+ O=C(CCCCCCC(=O)Nc1ccccc1)NO [vorinostat] (first compound 0.08 µM, partner dose 0.08 µM)", "cell count": 64}, {"compound": "NC1(c2ccc(-c3nc4ccn5c(=O)[nH]nc5c4cc3-c3ccccc3)cc2)CCC1", "note": "+ CS(=O)(=O)CCNCc1ccc(-c2ccc3ncnc(Nc4ccc(OCc5cccc(F)c5)c(Cl)c4)c3c2)o1 [lapatinib] (first compound 0.4 µM, partner dose 0.8 µM)", "cell count": 88}, {"compound": "C=C(c1ccc(C(=O)O)cc1)c1cc2c(cc1C)C(C)(C)CCC2(C)C", "note": "[Bexarotene] + c1cc(-c2cnn3cc(-c4ccc(OCCN5CCCCC5)cc4)cnc23)ccn1 [Dorsomorphin] (first compound 2 µM, partner dose 0.4 µM)", "cell count": 93.8}, {"compound": "CN(c1ncccc1CNc1nc(Nc2ccc3c(c2)CC(=O)N3)ncc1C(F)(F)F)S(C)(=O)=O", "note": "+ CC(C)C[C@H](NC(=O)[C@H](Cc1ccccc1)NC(=O)c1cnccn1)B(O)O [Bortezomib] (first compound 0.08 µM, partner dose 0.001 µM)", "cell count": 79.9}, {"compound": "NC1(c2ccc(-c3nc4ccn5c(=O)[nH]nc5c4cc3-c3ccccc3)cc2)CCC1", "note": "+ COc1cc(Nc2ncc(F)c(Nc3ccc4c(n3)NC(=O)C(C)(C)O4)n2)cc(OC)c1OC [Tamatinib] (first compound 0.4 µM, partner dose 0.4 µM)", "cell count": 115}, {"compound": "C=C(c1ccc(C(=O)O)cc1)c1cc2c(cc1C)C(C)(C)CCC2(C)C", "note": "[Bexarotene] + OCc1c[nH]c2ccccc12 [Indole-3-carbinol] (first compound 2 µM, partner dose 0.8 µM)", "cell count": 96.1}, {"compound": "C=C(c1ccc(C(=O)O)cc1)c1cc2c(cc1C)C(C)(C)CCC2(C)C", "note": "[Bexarotene] + N#Cc1c(O)c2c(-c3ccc(-c4ccccc4O)cc3)csc2[nH]c1=O [A769662] (first compound 2 µM, partner dose 2 µM)", "cell count": 90.2}, {"compound": "C=C(c1ccc(C(=O)O)cc1)c1cc2c(cc1C)C(C)(C)CCC2(C)C", "note": "[Bexarotene] + CCc1ccc(CCOc2ccc(CC3SC(=O)NC3=O)cc2)nc1 [pioglitazone] (first compound 2 µM, partner dose 2 µM)", "cell count": 90.8}, {"compound": "NC1(c2ccc(-c3nc4ccn5c(=O)[nH]nc5c4cc3-c3ccccc3)cc2)CCC1", "note": "+ NCC(=O)Nc1ccc(-n2nc(C(F)(F)F)cc2-c2ccc3c(ccc4ccccc43)c2)cc1 [OSU03012] (first compound 0.4 µM, partner dose 1 µM)", "cell count": 56.2}, {"compound": "NC1(c2ccc(-c3nc4ccn5c(=O)[nH]nc5c4cc3-c3ccccc3)cc2)CCC1", "note": "+ c1cc(-c2cnn3cc(-c4ccc(OCCN5CCCCC5)cc4)cnc23)ccn1 [Dorsomorphin] (first compound 0.4 µM, partner dose 0.4 µM)", "cell count": 87.3}, {"compound": "NC1(c2ccc(-c3nc4ccn5c(=O)[nH]nc5c4cc3-c3ccccc3)cc2)CCC1", "note": "+ C[C@]1(c2nc3c(C(N)=O)cccc3[nH]2)CCCN1 [Veliparib] (first compound 0.4 µM, partner dose 1.4 µM)", "cell count": 98.7}, {"compound": "C=C(c1ccc(C(=O)O)cc1)c1cc2c(cc1C)C(C)(C)CCC2(C)C", "note": "[Bexarotene] + CCCCCCCCCCCC1=C(O)C(=O)C=C(O)C1=O [Embelin] (first compound 2 µM, partner dose 1.2 µM)", "cell count": 90.5}, {"compound": "CS(=O)(=O)c1ccc(C(=O)Nc2ccc(Cl)c(-c3ccccn3)c2)c(Cl)c1", "note": "[vismodegib] + COc1ccc(Cl)c(Nc2nc3ccccc3nc2NS(=O)(=O)c2cccc(NC(=O)C(C)(C)N)c2)c1 [XL147] (first compound 1 µM, partner dose 0.8 µM)", "cell count": 109}, {"compound": "NC1(c2ccc(-c3nc4ccn5c(=O)[nH]nc5c4cc3-c3ccccc3)cc2)CCC1", "note": "+ CC1(C)NC(=O)N(c2ccc([N+](=O)[O-])c(C(F)(F)F)c2)C1=O [nilutamide] (first compound 0.4 µM, partner dose 1 µM)", "cell count": 105}, {"compound": "CS(=O)(=O)c1ccc(C(=O)Nc2ccc(Cl)c(-c3ccccn3)c2)c(Cl)c1", "note": "[vismodegib] + COc1cc2ncnc(Nc3ccc(Oc4ccccc4)cc3)c2cc1OC [SrcI1] (first compound 1 µM, partner dose 2 µM)", "cell count": 107}, {"compound": "CS(=O)(=O)c1ccc(C(=O)Nc2ccc(Cl)c(-c3ccccn3)c2)c(Cl)c1", "note": "[vismodegib] + CN(C)S(=O)(=O)c1ccc2c(c1)/C(=C/c1cc3c([nH]1)CCCC3)C(=O)N2 [SU6656] (first compound 1 µM, partner dose 0.4 µM)", "cell count": 92.4}]}]}
